Here are results for 86 sequences from the supplement of paper PMC3334620.

Whole data set: some 33,000 sequences, median “E-score (-0.5 to 0.5)” near -0.011, cut for the highest 2% near 0.28. The list shows a part of the results.

This assay concerns the target T1, Gcr1 (UniProt P07261).
T1 sequence: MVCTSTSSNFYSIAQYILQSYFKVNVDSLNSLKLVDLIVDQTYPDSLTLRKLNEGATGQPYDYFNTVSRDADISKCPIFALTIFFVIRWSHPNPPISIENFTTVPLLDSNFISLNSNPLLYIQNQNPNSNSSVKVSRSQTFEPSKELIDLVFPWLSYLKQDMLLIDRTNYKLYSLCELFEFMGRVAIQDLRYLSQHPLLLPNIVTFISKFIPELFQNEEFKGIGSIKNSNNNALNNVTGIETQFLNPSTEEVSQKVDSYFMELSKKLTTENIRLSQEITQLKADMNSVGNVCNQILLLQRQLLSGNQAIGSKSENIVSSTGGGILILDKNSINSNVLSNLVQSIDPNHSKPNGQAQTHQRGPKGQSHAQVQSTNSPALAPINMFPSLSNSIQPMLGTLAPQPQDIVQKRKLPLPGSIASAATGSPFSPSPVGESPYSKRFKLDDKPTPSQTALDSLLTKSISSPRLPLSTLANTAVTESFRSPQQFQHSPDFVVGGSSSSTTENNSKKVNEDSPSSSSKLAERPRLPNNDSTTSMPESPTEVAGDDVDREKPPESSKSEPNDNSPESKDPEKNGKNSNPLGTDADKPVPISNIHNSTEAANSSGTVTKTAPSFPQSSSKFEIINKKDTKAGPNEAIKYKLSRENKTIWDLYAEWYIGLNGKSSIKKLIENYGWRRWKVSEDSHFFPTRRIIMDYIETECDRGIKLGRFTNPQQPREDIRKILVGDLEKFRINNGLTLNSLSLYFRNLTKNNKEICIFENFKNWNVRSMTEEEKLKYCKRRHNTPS
The experiment in a line: PBM E-score (8-mer binding enrichment) (E-score (-0.5 to 0.5)); higher = stronger / more preferred TF binding; most listed sequences are background and not binding sites. To be noted: protein concentration: 100 nM; construct: GST-full length. An outline of the steps:
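Yeast transcription factors carrying a GST tag, as full-length proteins or DNA-binding domains, were produced by PURExpress in vitro transcription/translation. About 100-200 nM protein was applied to universal all-10-mer Agilent arrays, double-stranded by primer extension on fresh or once-stripped slides. Bound protein was detected with fluorescent anti-GST, and scans were normalised with masliner. The Universal PBM Analysis Suite gave each ungapped eight-base word, pooled with its reverse complement, an E-score, a modified Wilcoxon-Mann-Whitney statistic.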
In the case of CGGACTGC, the “PBM E-score” value was determined as 0.0266.
Consider AATGCATG, for which the “PBM E-score” value was -0.124.
The result for ATTCGTTA reads 0.0715; that for AATCTTGA, 0.1; that for ATTTTCCG, 0.0628.
In the case of CGTAAATA, the “PBM E-score” value was determined as 0.123.
Consider ACTTTCTC, for which the “PBM E-score” value was found to be 0.0431.
On to GTCGATCA, for which the “PBM E-score” value is -0.191.
With GGTTTCAA the figure was 0.0956; with GCCCGGTA, 0.0674.
With AATGCTTA, the “PBM E-score” value was -0.0993.
AAACGAGA: the “PBM E-score” value was -0.144.
As for GGGGTCAA, the “PBM E-score” value stood at 0.0369.
As to AGTGCCTG, the “PBM E-score” value was 0.0177.
Turning to AGCATGCC, the “PBM E-score” value was -0.225.
With GGAAGTCA the figure was 0.234.
For the sequence CACGCTAA, the “PBM E-score” value is -0.183.
In the case of CGCCCGCA, the “PBM E-score” value was 0.117.
For the sequence AGATCGAG, the “PBM E-score” value was -0.17.
Regarding GCCCCCTA, the “PBM E-score” value stood at 0.079.
The result for CAGTTAAC reads 0.146; that for GCTGCCCC, 0.136; that for AGGCATGG, -0.0719.
Take ACCCATAA: the “PBM E-score” value came out at 0.178.
With CTTCCAAG the figure was -0.132.
The result for GTTGCATA reads -0.16; that for GAGCACAC, -0.271; that for ATCTCGCG, 0.13.
In the case of CAACTGGG, the “PBM E-score” value is 0.0742.
For the sequence TGGCAGAA, the “PBM E-score” value stood at 0.206.
With CCCTGTTC, the “PBM E-score” value is -0.0496.
For GATCCCCA, the “PBM E-score” value was 0.28.
For CGAATCTA, the “PBM E-score” value is 0.122.
For the sequence GATACTTA, the “PBM E-score” value was 0.0683.
With CCAATCGA the figure was 0.0476.
For the sequence GACACCGA, the “PBM E-score” value was 0.017.
Consider AGCAGCTA, for which the “PBM E-score” value is 0.273.
Consider AACATAAG, for which the “PBM E-score” value stood at 0.0293.
Turning to AACCCACC, the “PBM E-score” value was found to be 0.135.
Consider CACTCAGG, for which the “PBM E-score” value is -0.0815.
Consider ACTGTTTA, for which the “PBM E-score” value is -0.0723.
In the case of AAGCCATG, the “PBM E-score” value is -0.167.
For ATGTTAAC, the “PBM E-score” value is 0.0249.
The result for AGTCTCAG reads -0.0732; that for ATCTACTA, 0.136.
With CTTTAGTA, the “PBM E-score” value was determined as 0.107.
With AGCTGTGA the figure was -0.189; with GTTGTCCA, -0.239.
Take GTTCGTAA: the “PBM E-score” value amounted to 0.115.
In the case of AAATCCAG, the “PBM E-score” value worked out at 0.0406.
Consider AAGTACTC, for which the “PBM E-score” value is -0.00017.
For CAATAGTA, the “PBM E-score” value is 0.0639.
Regarding AGAATGAT, the “PBM E-score” value is -0.0182.
As to ATTTGGAA, the “PBM E-score” value is 0.373.
As to TAATTCCA, the “PBM E-score” value turned out to be 0.037.
In the case of CTAGGATC, the “PBM E-score” value was determined as 0.121.
GAGTCCTA: the “PBM E-score” value was 0.0444.
On to ATAGGGTA, for which the “PBM E-score” value was -0.191.
Regarding CTTGCGAC, the “PBM E-score” value is -0.193.
With AACTCCAC the figure was -0.0372.
Turning to AAGGTCAA, the “PBM E-score” value came out at 0.0136.
In the case of GCAGAGCA, the “PBM E-score” value is -0.0499.
Turning to AGAGACAG, the “PBM E-score” value was determined as 0.00332.
For the sequence AGATTAGC, the “PBM E-score” value worked out at 0.00374.
For the sequence GTGCAGAA, the “PBM E-score” value was 0.1.
Consider ACGCTTAT, for which the “PBM E-score” value was -0.126.
In the case of GACCAGGC, the “PBM E-score” value was -0.00191.
With GCGCCGGA the figure was 0.101; with CGGCGATC, -0.0767; with CCGGCAGA, 0.0729.
Regarding TGAAGGCA, the “PBM E-score” value was -0.0834.
CATGCATA: the “PBM E-score” value is -0.145.
For the sequence TCGGTGCA, the “PBM E-score” value was -0.143.
CTCACATA: the “PBM E-score” value is -0.136.
In the case of TAGTGGAA, the “PBM E-score” value is 0.42.
With CGGCCCCA, the “PBM E-score” value was -0.11.
As for ATCGAGCC, the “PBM E-score” value is -0.13.
Take GCTTAACA: the “PBM E-score” value was -0.00163.
With CAGCAGGA the figure was -0.057.
Turning to AACCGGGA, the “PBM E-score” value came to 0.127.
In the case of GAACACAC, the “PBM E-score” value was -0.171.
With CACAACAG, the “PBM E-score” value turned out to be 0.044.
The result for CTTGGTCC reads -0.0555; that for AGAATACG, 0.182.
In the case of AAGGGAAG, the “PBM E-score” value amounted to 0.04.
Turning to TCAGTGCA, the “PBM E-score” value was -0.0673.
